# According to PubChem BioAssay AID504832 (National Center for Advancing Translational Sciences (NCATS), 2011):
# Out of some 310,000 compounds screened, about 18,000 (5.8%) were called active. Inconclusive results, whose numbers are uncertain, are shown with a selection of clear calls. The call rests on the fitted dose curve; in most records, active means well fitted inhibition curve with a large enough effect; inconclusive means small, poorly fitted or top-dose-only effect, or another doubt; inactive means no such curve, though single readings can be large or run the other way. No potency is given beside an inconclusive call; the fits are too rough.
# Test: Primary qHTS for delayed death inhibitors of the malarial parasite plastid, 48 hour incubation
# Details: P. falciparum luciferase growth in erythrocytes; series mostly up to 28.7 µM; activity change, negative = inhibition: at the top concentration
# Procedure, shortened: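 In quantitative HTS format, infected erythrocytes bearing luciferase-reporter parasites were treated for a single generation at 37 C. Luminescence after adding detection reagent served as the growth measure.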
# On the % scale 0 is the no-effect control and ±100 the full control effect; potency means the concentration at half of the fitted maximal effect; tags describe the fitted curve by direction and shape.
SMILES,Potency,"activity change, negative = inhibition"
CC(C)(Oc1ccc(Cl)cc1)C(=O)NCC(c1cccs1)N1CCOCC1 (configuration not stated),"inconclusive [inhibitor, partial curve, poor fit]",–
C=CCn1c(SCC(=O)NC(=O)NCc2ccco2)nc2sc(CC)cc2c1=O,"inconclusive [inhibitor, single point]",–
CC(C)C[C@H]1CN=C(Nc2ccccc2)N1CC1CCCCCC1,"inconclusive [inhibitor, single point]",–
Cc1cccc(NC(=S)NCCC(C)C)c1,"inconclusive [inhibitor, full curve, poor fit]",–
CCN(CC)CCCNC(=O)c1ccc2c(=O)n(Cc3ccc4c(c3)OCO4)c(=S)[nH]c2c1,"inconclusive [inhibitor, single point]",–
CC(=O)N1CCc2cc(S(=O)(=O)NC(C(=O)NC3CCCc4ccccc43)C(C)C)ccc21 (configuration not stated),"inconclusive [inhibitor, partial curve]",–
O=C(CSc1nc(-c2ccc(F)cc2)cc(C(F)(F)F)n1)Nc1ccc2c(c1)OCO2,–,inactive: 15%
CN(CC(=O)Nc1ccccc1N1CCOCC1)S(=O)(=O)c1ccc(Cl)cc1,"inconclusive [inhibitor, partial curve]",–
COc1cccc(C2CC(c3cccs3)=NN2C(=O)CCC(=O)O)c1OC (configuration not stated),"inconclusive [inhibitor, single point]",–
Cc1cccc(N2CCN(c3ccc4cc(S(=O)(=O)N5CCCCC5)ccc4n3)CC2)c1C,active: 11.7 µM,–
CN(C)/C=N/NC(=O)c1ccccc1,"inconclusive [inhibitor, single point]",–
Cc1cc(C)c(S(=O)(=O)Nc2cc(SCC(=O)O)c(O)c3ccccc23)cc1C,active: 10.4 µM,–
CC(N=c1ccccn1C(=O)Nc1ccc(Cl)cc1)c1ccco1 (configuration not stated),"inconclusive [inhibitor, partial curve, poor fit]",–
CC(C(=O)NC1CCCC1)N(Cc1ccco1)C(=O)c1snc(C(=O)NC2CCCC2)c1N (configuration not stated),active: 13.1 µM,–
COc1cc2c(cc1OC)C1=CC(=O)C(=O)N1C(C)(C)C2,"inconclusive [inhibitor, partial curve, poor fit]",–
CCCOC(=O)Nc1cccc(C(C)=O)c1,–,inactive: 29%
CN(C)C1(CNC(=O)C2CCN(S(=O)(=O)c3c(Cl)cccc3Cl)CC2)CCCCC1,"inconclusive [inhibitor, single point]",–
CCOC(=O)c1ccc(NC(=O)C2(c3ccc(OC)cc3)CCCC2)cc1,active: 5.86 µM,–
COc1ccc(N2CCN(C(c3cccs3)C(C)NS(=O)(=O)c3ccccc3)CC2)cc1 (configuration not stated),active: 13.1 µM,–
COc1ccc2c(c1)OC(O)(C(F)(F)F)CC2=O (configuration not stated),"inconclusive [inhibitor, single point]",–
CCOC(=O)C(Oc1ccc2c(-c3ccc(OC)cc3)cc(=O)oc2c1C)c1ccccc1 (configuration not stated),"inconclusive [inhibitor, partial curve, poor fit]",–
O=C(Nc1nc2ccccc2[nH]1)c1ccc(Cl)cc1,–,inactive: -18.7%
Cc1ccc(C(=O)N[C@H](C(=O)N2CCN(c3ccccc3F)CC2)C(C)C)cc1,"inconclusive [inhibitor, single point]",–

SMILES,Potency,"activity change, negative = inhibition"
COCCN(C(=O)CSc1nc2ccccc2o1)c1c(N)n(Cc2ccccc2)c(=O)[nH]c1=O,"inconclusive [inhibitor, single point]",–
CCC(C)Sc1nc2c(c(=O)n1C)SC(C)C2 (configuration not stated),"inconclusive [inhibitor, partial curve, poor fit]",–
CCc1ccc2oc(C(=O)N3CCN(C)CC3)cc(=O)c2c1,–,inactive: 8.01%
Cc1cc(C)nc(NS(=O)(=O)c2ccc(NC(=O)CN3C(=O)c4ccccc4C3=O)cc2)n1,–,inactive: 7.97%
COc1cccc(C(=O)N/N=C2/SCC(=O)N2CCc2ccc(OC)c(OC)c2)c1,"inconclusive [inhibitor, single point]",–
COc1ccc(C2=CC(=O)CC(C)(C)C2)cc1OC,"inconclusive [inhibitor, partial curve, poor fit]",–
CSc1c(CC(=O)Nc2ccccc2C(F)(F)F)n(Cc2ccccc2)c2ccccc12,"inconclusive [inhibitor, partial curve, poor fit]",–
C/C(=N/NC(=O)CNS(=O)(=O)c1ccccc1)c1ccc(Br)cc1,"inconclusive [inhibitor, partial curve, poor fit]",–
Cc1nn(Cc2ccc(C(=O)NC(C)(C)C)o2)c(C)c1Br,"inconclusive [inhibitor, full curve, poor fit]",–
COc1ccc(C(=O)Nc2ccccc2N2CCN(C(=O)C(C)C)CC2)cc1Cl,active: 11.7 µM,–
CCOc1ccc(-n2c(SC(C)C)nc3c(c2=O)SCC3)cc1,active: 8.28 µM,–
O=C1c2ccccc2C(=O)N1CCc1csc(NNc2nc(CCN3C(=O)c4ccccc4C3=O)cs2)n1,"inconclusive [inhibitor, partial curve, poor fit]",–
CN1CCN(C(=O)CCN2C(=O)S/C(=C/c3ccc(Cl)cc3)C2=O)CC1,"inconclusive [inhibitor, single point]",–
Cc1ccc(S(=O)(=O)NCC(=O)N/N=C/c2ccccc2O)cc1,"inconclusive [inhibitor, partial curve]",–
COc1ccc(C2Nc3ccccc3C(=O)N2c2ccccc2)cc1CSc1ccccn1 (configuration not stated),"inconclusive [inhibitor, single point]",–
COc1cc(C2Sc3ccccc3NC3=C2C(=O)OC3)cc(OC)c1OC (configuration not stated),"inconclusive [inhibitor, partial curve, poor fit]",–
Cc1cc(C(=O)OCC(=O)NC2(C#N)CCCCC2)c(C)o1,"inconclusive [inhibitor, partial curve, poor fit]",–
C/C(=N\NC(=O)c1ccccc1)c1c(C)[nH]n(-c2ccccc2)c1=O,–,inactive: -2.27%
O=C(Nc1ncccc1O)c1ccc2c(c1)OCO2,active: 9.28 µM,–
CC(C)(C)NC(=O)c1ccc(NC(=O)c2ccccc2-c2ccccc2C(=O)O)cc1,"inconclusive [inhibitor, full curve, poor fit]",–
CCNCc1cc(Cl)c(OCc2ccccc2)c(OCC)c1,–,inactive: 0%
CN(/N=C/c1cccnc1)c1cnn(-c2ccc(F)c(Cl)c2)c(=O)c1Cl,–,inactive: 0%
CN1CCc2c(sc3c2c(=O)n(-c2ccccc2)c2nnc(SCc4ccc(Cl)cc4)n32)C1,"inconclusive [inhibitor, full curve]",–

SMILES,Potency,"activity change, negative = inhibition"
O=C(CCn1c(=O)[nH]c2ccsc2c1=O)N1CCN(c2cccc(Cl)c2)CC1,"inconclusive [inhibitor, partial curve, poor fit]",–
NNc1nc(-c2ccccc2)cc(-c2ccccc2)n1,"inconclusive [inhibitor, single point]",–
Cc1ccc(-n2c(C)cc(/C=C3\SC(=O)NC3=O)c2C)cc1,–,inactive: 107%
CC(C)Cc1nnc(NC(=O)CSc2nc(O)c(-c3ccccc3)c(=O)[nH]2)s1,–,inactive: 12.2%
COCCN(C(=S)Nc1cccc(OC)c1)C1CCN(C(C)C)CC1,–,inactive: 0.547%
O=C(Nc1ccc(OC(F)(F)F)cc1)NC1CCC(Oc2ccc(C(=O)O)cc2)CC1 (configuration not stated),"inconclusive [inhibitor, single point]",–
COc1ccc2cc(C(C)C(=O)Nc3cccc(S(=O)(=O)N(C)C)c3)ccc2c1 (configuration not stated),"inconclusive [inhibitor, single point]",–
CCOc1ccc(OCC(=O)OCc2csc(CC(=O)Nc3ccccc3C)n2)cc1,"inconclusive [inhibitor, single point]",–
CCCN1C2CCCC1CC(NC(=O)c1cc(OC)c(OC)c(OC)c1)C2 (configuration not stated),"inconclusive [inhibitor, partial curve, poor fit]",–
CN(C)c1ccc(-c2cccc(C3CC=CC4C3C(=O)N(Cc3ccccc3)C4c3ccc4ccccc4c3)c2)cc1 (configuration not stated),active: 9.28 µM,–
CN(c1ccccc1)S(=O)(=O)c1cccc(NC(=O)c2nn(C)c(=O)c3ccccc23)c1,"inconclusive [inhibitor, single point]",–
FC(F)(F)c1ccc(C2Nc3cccc4cccc(c34)N2)cc1,"inconclusive [inhibitor, single point]",–
Cc1ccc(Cl)cc1N1CCN(S(=O)(=O)c2c(C)noc2C)CC1,"inconclusive [inhibitor, single point]",–
CCCCn1c(N)c(N(CCC(C)C)C(=O)C(C)N2C(=O)c3ccccc3C2=O)c(=O)[nH]c1=O (configuration not stated),"inconclusive [inhibitor, single point]",–
COc1ccc(CC(=O)N/N=C(\C)CC(=O)NCc2ccco2)cc1OC,–,inactive: 4.17%
COC(=O)c1cc2ccsc2n1CC(=O)N(C)C1CCCCC1,–,inactive: 6.17%
Cc1ccccc1Nc1nc(N)nc(CSc2nc3ccccc3c(=O)n2CCCO)n1,active: 7.38 µM,–
CC(C)(C)n1nnnc1C(c1cccs1)N1CCN(c2ccccc2)CC1 (configuration not stated),"inconclusive [inhibitor, single point]",–
Cc1occc1C(=O)NNC(=S)NC(=O)COc1ccc(Cl)cc1Cl,–,inactive: 3.34%
Cc1cc(C)n2ncc(-c3cccc(Br)c3)c2n1,–,inactive: 20.4%
CCCNC(=O)c1ccccc1NC(=O)C1COc2ccccc2O1 (configuration not stated),"inconclusive [inhibitor, full curve, poor fit]",–
